Source: PubChem BioAssay AID686978 (National Center for Advancing Translational Sciences (NCATS), 2013)
Several values for one entry are separate records, joined by “and”; a condition that tells them apart may be missing. Identical values can stand only once. Screen size: about 420,000 compounds; about 64,000 (15%) were called active. The shares of active, inactive and inconclusive entries below differ from those in the screen. Calls follow the shape of the dose curve; as a rule, active = well fitted inhibition curve with a large enough effect; inconclusive = small, poorly fitted or top-dose-only effect; inactive = flat fitted curve, though single readings scatter. Where the call is inconclusive, the potency comes from a doubtful curve fit.

experiment: qHTS for Inhibitors of human tyrosyl-DNA phosphodiesterase 1 (TDP1): qHTS in cells in absence of CPT; conditions: DT40 Tdp1-/- hTDP1 cells, no CPT, ATP luminescence, 48 h; activity change, negative = growth inhibition: at 46.2 µM (top of the series) unless noted; also: nearly all actives have a fitted effect of over 55% in size
Method in brief: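 Compound effects on proliferation are scored in DT40 Tdp1-/-;hTDP1 cells in the absence of CPT. ATP levels (CellTiter-Glo luminescence) are recorded after a ≥48 hr, 37 °C incubation.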
% is scaled to controls: 0 for no effect and ±100 for the full control effect; potency is read from the fitted curve at half-maximal effect; tags tell the direction and shape of the fitted curve.

With `CCc1ccc(S(=O)(=O)c2nnn3c2nc(NCc2ccccc2)c2cc(Cl)ccc23)cc1` as the compound, how does the Potency read?
Its Potency is inconclusive: 29.1 µM [inhibitor, single point].

For `CCCCOc1ccc(C(=O)NCC(=O)NC2CC2)cc1`, which “activity change, negative = growth inhibition” value is on record?
The value was inactive: 1.25%.

Which Potency does the source give for `Cc1nc2ccc([N+](=O)[O-])cc2c(=O)n1Cc1ccc(F)cc1` here?
Its Potency is inconclusive: 29.1 µM [inhibitor, single point].

Which Potency does the source give for `CC(NC(=O)CCNC(=O)c1ccc(C(C)(C)C)cc1)c1ccccc1` (stereo not given) here?
Its Potency is inconclusive: 29.1 µM [inhibitor, single point].

Which Potency does the source give for `COc1ccc(-c2nnn(CC(=O)N(CC(=O)NCCC(C)C)Cc3cccs3)n2)cc1OC` here?
Its Potency is inconclusive: 23.1 µM [inhibitor, partial curve].

Which Potency does the source give for `CN(CC(=O)Nc1cccc(F)c1)C(=O)c1ccc(COc2ccccc2)cc1` here?
Its Potency is inconclusive: 7.31 µM [inhibitor, partial curve, poor fit].

For `COCCCNc1nc2nonc2nc1NCCSC`, which “activity change, negative = growth inhibition” value is on record?
Its value is inactive: 1.42%.

Which Potency does the source give for `O=C(COC(=O)c1ccccc1C(=O)c1ccccc1)NCCc1ccc(Cl)cc1Cl` here?
The Potency was active: 20.6 µM.

Which Potency does the source give for `O=C(Nc1ccccc1)c1ccc(-c2ccccc2Cl)o1` here?
The Potency was active: 18.4 µM.

For `c1ccc(CN2CCN(C(c3ccccc3)c3nnnn3Cc3ccccc3)CC2)cc1` (stereo not given), which Potency is on record?
Its Potency is active: 18.4 µM.

Which Potency does the source give for `CCN1C(=O)C(Cc2nc3ccccc3c(=O)n2C)c2cc(C)ccc21` (stereo not given) here?
The Potency was active: 25.9 µM.

With `CN(C)c1cc(Nc2cccc(O)c2)c([N+](=O)[O-])c2nonc12` as the compound, how does the Potency read?
The Potency was inconclusive: 16.4 µM [inhibitor, partial curve, poor fit].

For `c1ccc(-c2nc(NCC3CC3)nc3ccsc23)cc1`, which Potency is on record?
The Potency was inconclusive: 23.1 µM [inhibitor, single point].

Which Potency does the source give for `COc1cc(-c2ccc3c(=O)c4ccccc4n(C)c3c2)cc(OC)c1OC` here?
Its Potency is active: 11.6 µM.

Which Potency does the source give for `COc1cccc(N2CC(NS(=O)(=O)c3ccc4ccccc4c3)CC2=O)c1` (stereo not given) here?
The Potency was active: 29.1 µM.

With `CCOc1ccc(C(=O)Nc2ccc3c(c2)OCCO3)cc1Br` as the compound, how does the Potency read?
Its Potency is inconclusive: 32.6 µM [inhibitor, single point].

Which “activity change, negative = growth inhibition” value does the source give for `O=C(/C=C/c1cccs1)N1CCCCC1` here?
The value was inactive: -15.6%.

With `Cn1nc(C(=O)NC2CCCCC2)c2ccccc2c1=O` as the compound, how does the “activity change, negative = growth inhibition” value read?
The value was inactive: -0.805%.

With `COc1cccc(/C=N/NC(=O)c2ccc(N(C)S(=O)(=O)c3ccccc3)cc2)c1OC` as the compound, how does the Potency read?
The Potency was inconclusive: 10.3 µM [inhibitor, partial curve].

For `COc1cccc(CNC(=O)CCC2CCCN(C(=O)c3ccc(OC)o3)C2)c1` (stereo not given), which activity change, negative = growth inhibition is on record?
The activity change, negative = growth inhibition was inconclusive: -30.4% [inhibitor].

For `N#Cc1c(-c2ccc3c(c2)OCO3)cc[nH]c1=O`, which Potency is on record?
The Potency was inconclusive: 8.2 µM [inhibitor, partial curve, poor fit].

For `CCOC(=O)c1[nH]c(C)c(C(=O)OCC(=O)N2CCc3ccccc32)c1C`, which Potency is on record?
Its Potency is inconclusive: 0.184 µM [inhibitor, full curve, poor fit].

Which “activity change, negative = growth inhibition” value does the source give for `O=C(CSc1nnc(CNC(=O)c2ccco2)o1)Nc1ccccc1` here?
Its value is inactive: 9.74%.

Which Potency does the source give for `Cc1ccc(/C=c2\sc3n(c2=O)CN(c2ccc(Br)cc2)CN=3)o1` here?
Its Potency is inconclusive: 23.1 µM [inhibitor, single point].

Which Potency does the source give for `Cc1cccc(C(=O)NC(C(=O)Nc2ccccc2N2CCOCC2)C(C)C)c1` (stereo not given) here?
The Potency was inconclusive: 29.1 µM [inhibitor, partial curve, poor fit].

For `CSc1ccccc1C(=O)C1CCCN(Cc2c(C)n(C)n(-c3ccccc3)c2=O)C1` (stereo not given), which Potency is on record?
The Potency was active: 29.1 µM.

For `CCC(C(=O)NC1CCCC1)N(Cc1ccccc1Cl)C(=O)c1snc(C(N)=O)c1N` (stereo not given), which Potency is on record?
Its Potency is active: 13 µM.

Which Potency does the source give for `CCCc1ccc2oc(C(=O)N3CCN(C4CCS(=O)(=O)C4)CC3)c(C)c2c1` (stereo not given) here?
The Potency was inconclusive: 29.1 µM [inhibitor, single point].

Which Potency does the source give for `COc1ccccc1-c1nc2cc(NC(=O)c3ccccc3Cl)ccc2o1` here?
Its Potency is inconclusive: 20.6 µM [inhibitor, single point].

For `COC(=O)C1=C(C)N(Cc2ccccc2)C(=S)N[C@H]1c1ccccc1`, which Potency is on record?
The Potency was inconclusive: 20.6 µM [inhibitor, single point].

For `O=C(Nc1ccc2c(c1)OCCO2)C(C1CC1)n1c(=O)c(-c2ccccc2)nc2ccccc21` (stereo not given), which activity change, negative = growth inhibition is on record?
The activity change, negative = growth inhibition was inconclusive: -31% [inhibitor].

Which Potency does the source give for `O=C(/C=C/c1cccs1)c1cc(Br)ccc1OC(=O)N1CCOCC1` here?
Its Potency is inconclusive: 29.1 µM [inhibitor, single point].

For `CCCCC(=O)Nc1ccc(NC(=O)c2ccc([N+](=O)[O-])cc2)cc1OC`, which activity change, negative = growth inhibition is on record?
The activity change, negative = growth inhibition was inconclusive: -36.9% [inhibitor].

With `O=S(=O)(c1ccc2c(Cl)cccc2c1)N1CCN(c2nc(-c3cccs3)nc3ccccc23)CC1` as the compound, how does the “activity change, negative = growth inhibition” value read?
Its value is inactive: -9.77%.

Which “activity change, negative = growth inhibition” value does the source give for `COc1ccc(CC(NC(C)=O)C(=O)NC2CCN(C(=O)NCc3ccccc3)CC2)cc1` (stereo not given) here?
Its value is inactive: 1.65%.

Which Potency does the source give for `CC(C)C[C@H]1CNC(=O)C(=O)N1C[C@@H]1CCCN1C[C@H](Cc1ccc(O)cc1)N1C[C@H](Cc2ccccc2)N(CC2CCCCCC2)C(=O)C1=O` here?
The Potency was inconclusive: 29.1 µM [inhibitor, single point].

For `COCCCNCC#CCOc1ccc(OC)cc1`, which Potency is on record?
Its Potency is inconclusive: 5.8 µM [inhibitor, single point].

Which Potency does the source give for `Cc1nc(NCc2cccnc2)c2c3c(sc2n1)CC(C)CC3` (stereo not given) here?
The Potency was inconclusive: 14.6 µM [inhibitor, partial curve].

With `Cc1cc(CN(C)C(=O)c2cc(COc3ccc(C)c(C)c3)on2)n[nH]1` as the compound, how does the Potency read?
Its Potency is inconclusive: 25.9 µM [inhibitor, single point].

With `O=C(CN1CCN(Cc2ccccc2Cl)C1=O)NCCc1ccc(Cl)cc1` as the compound, how does the Potency read?
The Potency was inconclusive: 16.4 µM [inhibitor, single point].

Which Potency does the source give for `COc1ccccc1NC(=O)CC(c1ccc(OC(C)C)cc1)c1ccccc1OC` (stereo not given) here?
Its Potency is active: 20.6 µM.

For `CCC(C(=O)Nc1ccc(C(=O)Nc2ccccc2C(=O)O)cc1)c1ccccc1` (stereo not given), which “activity change, negative = growth inhibition” value is on record?
Its value is inactive: -18.9%.

With `O=C(NCc1ccccc1F)C1CCN(S(=O)(=O)c2ccccc2)CC1` as the compound, how does the Potency read?
Its Potency is inconclusive: 10.3 µM [inhibitor, partial curve, poor fit].

For `Cc1ccc(-c2csc3ncnc(Nc4ccc(C(=O)O)cc4)c23)cc1`, which Potency is on record?
Its Potency is “inactive and inconclusive: 8.2 µM [inhibitor, partial curve, poor fit]”.

With `Cc1cccc[n+]1CC(=O)c1ccc(NC(=O)c2ccccc2)cc1` as the compound, how does the Potency read?
The Potency was inconclusive: 29.1 µM [inhibitor, single point].

Which “activity change, negative = growth inhibition” value does the source give for `CC(=O)c1cccc(NC(=O)NC2CCCCCCC2)c1` here?
Its value is inactive: -5.87%.

For `FC(F)(F)c1cc(-c2cccs2)nc(NCc2ccco2)n1`, which Potency is on record?
Its Potency is inconclusive: 16.4 µM [inhibitor, partial curve, poor fit].

Which Potency does the source give for `CCOc1ccc(N2C(=O)C(CC(=O)Nc3ccccc3)N(Cc3ccccn3)C2=S)cc1` (stereo not given) here?
The Potency was inconclusive: 6.51 µM [inhibitor, partial curve].

With `CCc1noc(C)c1C(=O)Nc1nc2c(F)cc(F)cc2s1` as the compound, how does the Potency read?
Its Potency is inconclusive: 16.4 µM [inhibitor, single point].

For `O=C(NCc1ccco1)C(=O)NCC1OCCN1S(=O)(=O)c1cc(F)ccc1F` (stereo not given), which Potency is on record?
The Potency was inconclusive: 18.4 µM [inhibitor, single point].

For `CCCOc1ccc([N+](=O)[O-])c(N)c1`, which “activity change, negative = growth inhibition” value is on record?
Its value is inactive: -2.95%.

For `CC1(C)CC2CC(C)(CN2CC(O)c2ccccc2)C1` (stereo not given), which “activity change, negative = growth inhibition” value is on record?
The value was inactive: -29.7%.

For `Cc1cc(Cl)c(S(=O)(=O)Nc2cccc(O)c2)cc1OCC(N)=O`, which Potency is on record?
The Potency was inconclusive: 29.1 µM [inhibitor, single point].

Which Potency does the source give for `O=c1cc(-c2ccccc2[N+](=O)[O-])oc2ccccc12` here?
The Potency was active: 23.1 µM.

With `CC(=O)Nc1cc(C(=O)N2CCCC2)ccc1Sc1ccc(C)cc1` as the compound, how does the Potency read?
Its Potency is inconclusive: 29.1 µM [inhibitor, single point].

With `COC(=O)c1ccc2c(c1)N(Cc1ccccc1)C(=O)c1ccccc1S2(=O)=O` as the compound, how does the Potency read?
Its Potency is inconclusive: 18.4 µM [inhibitor, single point].

Which Potency does the source give for `COc1ccc(S(=O)(=O)c2cnc3ccccc3n2)cc1` here?
The Potency was inconclusive: 29.1 µM [inhibitor, single point].

Which Potency does the source give for `Cn1c(C(=O)OCC(=O)NCc2cccs2)cc2sccc21` here?
Its Potency is inconclusive: 16.4 µM [inhibitor, partial curve].

For `COc1cccc(C2C=C(c3ccc(Br)s3)Nc3ncnn32)c1OC` (stereo not given), which Potency is on record?
Its Potency is inconclusive: 29.1 µM [inhibitor, single point].

With `COc1ccc(Cl)cc1NC(=O)CN1Cc2ccccc2C1=O` as the compound, how does the Potency read?
The Potency was inconclusive: 29.1 µM [inhibitor, single point].

Which “activity change, negative = growth inhibition” value does the source give for `CCOc1ccc(NC(=O)Cc2c[nH]c3ccccc23)cc1` here?
The value was inactive: -14.7%.

With `COc1ccc(NC(=O)COC(=O)Cn2cnc3ccccc3c2=O)c(OC)c1` as the compound, how does the “activity change, negative = growth inhibition” value read?
The value was inactive: -16.8%.

With `O=C(Nc1cccc(-c2ccc(F)cc2)c1)C1CCCN(C(=O)c2cscn2)C1` (stereo not given) as the compound, how does the Potency read?
Its Potency is inconclusive: 29.1 µM [inhibitor, single point].

Which “activity change, negative = growth inhibition” value does the source give for `O=C(Cc1nnc(NC(=O)Nc2ccc(F)cc2)s1)NCc1ccccc1` here?
The value was inactive: -22.7%.

With `O=C(O)c1ccc(NC(=O)c2ccc(Br)c(S(=O)(=O)N3CCCC3)c2)cc1` as the compound, how does the “activity change, negative = growth inhibition” value read?
The value was inactive: 2.18%.

For `CC(/C=C/c1ccco1)=N/NC(=O)OC(C)(C)C`, which Potency is on record?
Its Potency is active: 14.6 µM.

Which “activity change, negative = growth inhibition” value does the source give for `CCOC(=O)C1CCCN(C(=O)CCc2nnc(-c3ccc(C(C)=O)s3)o2)C1` (stereo not given) here?
The value was inactive: -1.48%.

For `C/C(=N\NC(=O)c1cc(-c2ccc(Br)s2)[nH]n1)c1ccncc1`, which Potency is on record?
The Potency was inconclusive: 18.4 µM [inhibitor, single point].

With `CCN1CCc2c(sc(NC(=O)c3ccc(S(=O)(=O)N4CCCCCC4)cc3)c2C(=O)NC)C1` as the compound, how does the Potency read?
The Potency was inconclusive: 16.4 µM [inhibitor, single point].

With `CC(C)(C)C(=O)O/N=C(\N)c1ccc(Br)cc1` as the compound, how does the Potency read?
The Potency was inconclusive: 20.6 µM [inhibitor, single point].
